PubChem BioAssay (NCATS)
Where “and” joins values, the source holds several entries; their conditions need not be identical. Equal entries are not always repeated. The inconclusive results got no clear call from the source; some entries with a clear call stand among them for comparison. A potency beside an inconclusive call is a rough fit, not a confirmed value. Calls of active or inactive are those of the source. Calls follow the shape of the dose curve; as a rule, active = well fitted cell-killing curve with a large enough effect; inconclusive = small, poorly fitted or top-dose-only effect; inactive = flat fitted curve, though single readings scatter.

Assay: qHTS of pediatric cancer cell lines to identify multiple opportunities for drug repurposing: Primary screen for BT-37 cells (AID 1347094)
Conditions: BT-37 viability, CellTiter-Glo luminescence, 48 h; series mostly up to 57.3 µM; activity change, negative = cytotoxic: at the top concentration
Excerpt: Drug repurposing or repositioning has been offered as a strategy for drug development in oncology programs. This approach has special potential for childhood cancers and other rare or orphan diseases, where the expected return on new drug development has been a disincentive to pharmaceuticals. […] In this project we exploit the poly-pharmacology of drugs to discover new indications via phenotypic screening of a panel of 19 well-characterized cell lines derived from solid tumors seen in children and adolescents. The goal is to identify approved drugs with previously unrecognized anticancer properties that has the potential to reveal new mechanisms and biological processes involved in carcinogenesis or drug resistance. We employed a titration-based paradigm (quantitative high-throughput screening or qHTS), where all compounds were tested at multiple concentrations for their effect on cell viability. Concentration-response curves (CRCs) were derived directly from the primary screen, and both potency and efficacy values were used to identify compounds with robust bioactivity profiles. We screened the NIH Chemical Genomics Center (NCGC) Pharmaceutical Collection (NPC) and Mechanism Interrogation Plate (MIPE) small molecule collections of approved and investigational compounds against these cell lines; and measured metabolically active cells after 48 hours of compound treatment as a proxy for cell viability. […] Assay Submitter: Nathalia J. Martinez, National Center for Advancing Translational Sciences, National Institutes of Health, Rockville, MD, USA; email: natalia.martinez@nih.gov Shen, M et al. Quantitative high-throughput phenotypic screening of pediatric cancer cell lines identifies multiple opportunities for drug repurposing. Oncotarget 2017 Dec 19;9(4):4758-4772. PMID 29435139.
The cells were obtained from University of North Carolina (UNC), Pediatric Preclinical Testing Program (PPT), and Coriell Institute (CI). qHTS cell viability assay: Cells were assayed in growth media at a density of 500-1,000 cells/well. Five microliters of cells were dispensed into 1,536-well, white, solid-bottom, TC-treated plates (Greiner Bio One) using a multidrop dispenser and incubated at 37 degrees C, 5% CO2, under a humidified atmosphere for 5 hours. Twenty-three nanoliters of compounds and controls (neutral control DMSO or positive control bortezomib at final concentration of 2.3 µM) were subsequently transferred by Kalypsys pintool. For primary screens, the MIPE collection was tested at 11-point dilutions (final concentrations range from 0.78 nM to 46 µM) and the NPC collection at 8-point dilutions (final concentrations range from 0.59 nM to 46 µM). Compounds tested in follow-up screens were assayed at 11-point dilutions. Cells were incubated for 48 hours, followed by addition of 3 µL of CellTiter-Glo (Promega). After a 15 min incubation at room temperature, samples were analyzed for luminescence intensity using a ViewLux High-throughput CCD imager equipped with clear filters.
Potency is read from the fitted curve at half-maximal effect; tags tell the direction and shape of the fitted curve.

| SMILES | Potency | activity change, negative = cytotoxic |
| --- | --- | --- |
| Nc1ccc(C(=O)c2cc3c(ccc4ccccc43)[nH]2)cc1 | active: 7.69 µM |  |
| N#CC[C@H](C1CCCC1)n1cc(-c2ncnc3[nH]ccc23)cn1 | inconclusive: 43.2 µM [cytotoxic, single point] |  |
| O=C(O)CCCc1c[nH]c2ccccc12 | inconclusive: 17.2 µM [cytotoxic, partial curve] |  |
| COc1cccc2c1C(=O)c1c(O)c3c(c(O)c1C2=O)C[C@@](O)(C(=O)CO)C[C@@H]3O[C@H]1C[C@H](N)[C@@H](O)[C@H](C)O1 | active: 0.193 µM |  |
| N#CC1(c2cccc(C(=O)Nc3cc(Oc4ccc5nc(NC(=O)C6CC6)sc5n4)ccc3F)c2Cl)CC1 | inconclusive: 5.44 µM [cytotoxic, partial curve] |  |
| CNC(=O)[C@H](CC1=CN=C2C=CCC=C12)NC(=O)[C@@H](CC(=O)NO)CC(C)C | active: 0.685 µM |  |
| O=C(Nc1ncc(SCCN2CCCC2)s1)[C@]1(c2ccc(S(=O)(=O)C3CC3)cc2)C[C@@H]1C1CCCCC1 | active: 30.6 µM |  |
| CC1=CC(=O)c2ccccc2C1=O | inconclusive: 43.2 µM [cytotoxic, partial curve, poor fit] |  |
| COc1ccc2c(c1)CC[C@@H](CN(C)CC(=O)O)[C@H]2c1ccccc1 | active: 6.11 µM |  |
| CCCCCCOC(=O)N=C(N)c1ccc(NCc2nc3cc(C(=O)N(CCC(=O)OCC)c4ccccn4)ccc3n2C)cc1 | inconclusive: 30.6 µM [cytotoxic, single point] |  |
| COc1cc2c(cc1OC)[C@@H]1Cc3ccc(OC)c(OC)c3CN1CC2 | inconclusive: 17.2 µM [cytotoxic, partial curve] |  |
| CC(C)(F)C[C@H](N[C@@H](c1ccc(-c2ccc(S(C)(=O)=O)cc2)cc1)C(F)(F)F)C(=O)NC1(C#N)CC1 | inconclusive: 15.3 µM [cytotoxic, partial curve] |  |
| Oc1ccc([C@@H]2Oc3ccc(O)cc3[C@@H]3CCC[C@@H]32)cc1 | inconclusive: 24.3 µM [cytotoxic, partial curve] |  |
| CC=CC1=C(C(=O)O)N2C(=O)[C@H](NC(=O)[C@H](N)c3ccc(O)cc3)[C@@H]2SC1 | inconclusive: 21.7 µM [cytotoxic, partial curve] |  |
| COc1cc2c(N3CCN(C(=O)Nc4ccc(OC(C)C)cc4)CC3)ncnc2cc1OCCCN1CCCCC1 | inconclusive: 34.3 µM [cytotoxic, single point] and inconclusive: 30.9 µM [cytotoxic, single point] |  |
| CCN1CCCC1CNC(=O)c1cc(S(N)(=O)=O)ccc1OC (stereo not given) |  | inactive: 18.4% |
| O=C(Nc1cccc2c(=O)cc(-c3nn[nH]n3)oc12)c1ccc(OCCCCc2ccccc2)cc1 | inconclusive: 43.2 µM [cytotoxic, partial curve, poor fit] |  |
| O=c1[nH]nc(OCCCc2ccc(Cl)cc2)c(NCc2cccnc2)c1Br | active: 21.7 µM |  |
| CC(=O)O[C@H]1C(=O)[C@@]2(C)C([C@H](OC(=O)c3ccccc3)[C@]3(O)C[C@H](OC(=O)[C@H](O)[C@@H](NC(=O)c4ccccc4)c4ccccc4)C(C)=C1C3(C)C)[C@]1(OC(C)=O)CO[C@@H]1C[C@@H]2O (stereo not given in full) | inconclusive: 0.0017 µM [cytotoxic, full curve] |  |
| CN(C)CCCC1(c2ccc(F)cc2)OCc2cc(C#N)ccc21 (stereo not given) | inconclusive: 8.63 µM [cytotoxic, partial curve] |  |

| SMILES | Potency | activity change, negative = cytotoxic |
| --- | --- | --- |
| CC(C)NC[C@@H](C(=O)N1CCN(c2ncnc3c2[C@H](C)C[C@H]3O)CC1)c1ccc(Cl)cc1 | active: 4.32 µM |  |
| Cc1ccc(S(=O)(=O)N[C@@H](Cc2ccccc2)C(=O)CCl)cc1 | active: 24.3 µM |  |
| O=C(O)c1ccc(O)c2ncc(N3CCOCC3)cc12 | inconclusive: 24.3 µM [cytotoxic, partial curve] |  |
| CC(C)[C@H](C(=O)Nc1ccc(C(=O)NO)cc1)c1ccccc1 | active: 2.17 µM |  |
| COC(=O)[C@H](c1ccccc1Cl)N1CCc2sccc2C1 | inconclusive: 24.3 µM [cytotoxic, partial curve] |  |
| C[C@@H](NC(=O)c1ncnc(N)c1Cl)c1ncc(C(=O)Nc2cc(C(F)(F)F)c(Cl)cn2)s1 | inconclusive: 8.63 µM [cytotoxic, full curve] |  |
| CC[C@H](C)C(=O)O[C@H]1C[C@@H](C)C=C2C=C[C@H](C)[C@H](CC[C@@H]3C[C@@H](O)CC(=O)O3)[C@H]21 | inconclusive: 15.5 µM [cytotoxic, partial curve] and inconclusive: 15.3 µM [cytotoxic, partial curve] |  |
| CC(C)OC(=O)[C@H](C)N[P@](=O)(OC[C@H]1O[C@@H](n2ccc(=O)[nH]c2=O)[C@](C)(F)[C@H]1O)Oc1ccccc1 |  | inactive: -1.52% |
| Nc1nc(Cl)nc2c1ncn2[C@@H]1O[C@H](CO)[C@@H](O)[C@H]1F | active: 0.0485 µM |  |
| CC1(C)O[C@H]2CC(=O)OC[C@]23[C@H]2CC[C@@]4(C)[C@H](c5ccoc5)OC(=O)[C@H]5O[C@]54[C@]2(C)C(=O)C[C@@H]13 | inactive |  |
| Fc1ccc(Cl)cc1-c1nc(Nc2ccncc2)c2nccnc2n1 | inconclusive: 7.69 µM [cytotoxic, partial curve, poor fit] |  |
| CN(C)C(=O)c1ccc(S(=O)(=O)c2ccc(NC(=O)[C@@](C)(O)C(F)(F)F)c(Cl)c2)cc1 | inconclusive: 21.7 µM [cytotoxic, single point] |  |
| CS(=O)(=O)Nc1ccc([N+](=O)[O-])cc1Oc1ccccc1 | inconclusive: 15.3 µM [cytotoxic, partial curve] |  |
| CC(=O)O[C@@]12CO[C@H]1C[C@H](O)[C@@]1(C)C(=O)[C@H](O)C3=C(C)[C@@H](OC(=O)C(O)[C@@H](NC(=O)OC(C)(C)C)c4ccccc4)C[C@@](O)([C@@H](OC(=O)c4ccccc4)[C@@H]21)C3(C)C (stereo not given in full) | inconclusive: 0.0049 µM [cytotoxic, full curve] |  |
| CC(=O)N1CCN(c2ccc(OC[C@H]3CO[C@](Cn4ccnc4)(c4ccc(Cl)cc4Cl)O3)cc2)CC1 | inconclusive: 21.7 µM [cytotoxic, partial curve] |  |
| CCCCC[C@H](O)C=C[C@H]1[C@H](O)CC(=O)[C@H]1CCCCCCC(=O)O |  | inactive: -7.37% |
| COc1cc(OC2CCN(C)CC2)ccc1Nc1ncc2c(n1)n(C1CCCC1)c(=O)n2C | inconclusive: 19.3 µM [cytotoxic, partial curve] |  |
| COc1cc2c(cc1OC)CC(=O)N(CCCN(C)C[C@H]1Cc3cc(OC)c(OC)cc31)CC2 | inconclusive: 7.69 µM [cytotoxic, partial curve, poor fit] |  |
| Cc1cc(Nc2nc(N[C@@H](C)c3ccc(F)cc3)c(C#N)cc2F)n[nH]1 | inconclusive: 2.43 µM [cytotoxic, full curve] |  |
| Cc1cnc(Nc2cccc(CN3CCOCC3)c2)nc1Nc1cccc(S(=O)(=O)NC(C)(C)C)c1 | inconclusive: 17.2 µM [cytotoxic, partial curve] |  |
